Hit rate of the full screen: of about 310,000 compounds, about 14,000 (4.5%) showed an effect of 50% or more. Effects have a minus sign here. Some of the results follow.

This note sets out measurements from publication PMC4336329 (PLoS ONE, 2015).
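Further: peak tail current of the secondary pulse compared with the same well before compound.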

For the test, the target named is human ether-à-go-go-related gene (hERG) potassium channel (human, UniProt Q12809). Nature of the test: primary screen, population patch clamp on CHO cells stably expressing hERG.
Chain of human ether-à-go-go-related gene (hERG) potassium channel (Q12809 whole entry, looked up): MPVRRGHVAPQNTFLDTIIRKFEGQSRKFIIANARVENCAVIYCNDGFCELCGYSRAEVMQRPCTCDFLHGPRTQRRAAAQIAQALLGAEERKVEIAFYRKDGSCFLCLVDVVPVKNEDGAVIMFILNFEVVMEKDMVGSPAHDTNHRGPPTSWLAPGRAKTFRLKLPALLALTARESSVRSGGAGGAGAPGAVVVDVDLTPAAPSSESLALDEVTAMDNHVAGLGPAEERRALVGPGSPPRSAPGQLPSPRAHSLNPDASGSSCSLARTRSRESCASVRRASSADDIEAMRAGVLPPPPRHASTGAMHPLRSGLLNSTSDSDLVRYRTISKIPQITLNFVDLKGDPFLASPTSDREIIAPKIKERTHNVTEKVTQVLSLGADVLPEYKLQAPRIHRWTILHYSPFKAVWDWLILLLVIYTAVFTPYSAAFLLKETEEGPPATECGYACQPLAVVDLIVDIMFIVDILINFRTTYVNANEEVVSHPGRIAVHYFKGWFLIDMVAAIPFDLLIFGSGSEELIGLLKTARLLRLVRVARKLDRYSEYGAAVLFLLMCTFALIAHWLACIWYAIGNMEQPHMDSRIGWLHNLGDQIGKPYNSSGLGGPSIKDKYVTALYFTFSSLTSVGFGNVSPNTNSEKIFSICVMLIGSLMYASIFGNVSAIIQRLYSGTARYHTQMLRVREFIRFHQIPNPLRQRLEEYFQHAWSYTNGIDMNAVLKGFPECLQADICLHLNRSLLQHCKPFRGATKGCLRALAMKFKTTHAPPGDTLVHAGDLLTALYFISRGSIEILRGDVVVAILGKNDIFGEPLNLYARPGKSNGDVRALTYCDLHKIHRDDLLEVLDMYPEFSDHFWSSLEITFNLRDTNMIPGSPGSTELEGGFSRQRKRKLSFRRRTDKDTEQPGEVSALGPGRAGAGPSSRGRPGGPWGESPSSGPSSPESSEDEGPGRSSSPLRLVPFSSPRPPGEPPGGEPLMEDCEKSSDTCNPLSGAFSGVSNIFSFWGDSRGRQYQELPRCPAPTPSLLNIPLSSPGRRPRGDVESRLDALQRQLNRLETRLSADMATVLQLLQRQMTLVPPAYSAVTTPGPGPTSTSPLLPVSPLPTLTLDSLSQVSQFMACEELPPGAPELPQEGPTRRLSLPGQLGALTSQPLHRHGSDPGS
In the case of `Cc1ccc(-c2nc(S(=O)(=O)c3ccc(C)cc3)c(N(C)C)o2)cc1`, the “hERG current change (%, negative = inhibition) at 10uM” value was found to be 4.08%.

Take `O=C(CCC(=O)N(CC(=O)NC1CCCCC1)c1ccc(F)cc1)Nc1ccccn1`: the “hERG current change (%, negative = inhibition) at 10uM” value is recorded as -0.471%.

Take `COCCOC(=O)c1c(NC(=O)CN2c3ccccc3CC2C)sc(C(N)=O)c1C` (stereo not shown): the “hERG current change (%, negative = inhibition) at 10uM” value was 9.89%.

As to `CC(=O)c1ccc(NC(=S)N2CCN(CCO)CC2)cc1`, the “hERG current change (%, negative = inhibition) at 10uM” value came out at 13.1%.

Take `CCc1nnc(NC(=O)CN2C(=O)/C(=C/c3cc(OC)c(OC)c(OC)c3)SC2=S)s1`: the “hERG current change (%, negative = inhibition) at 10uM” value was -0.87%.

Regarding `CCOC(=O)C1CCN(C(=O)CCc2nnc3ccc(N4CCN(C)CC4)nn23)CC1`, the “hERG current change (%, negative = inhibition) at 10uM” value is 16.7%.

With `C#CCOCCOCCOCCNc1nc(N2CCN(C(=O)Cn3cc(CCCC[NH3+])nn3)CC2)nc(N2CCN(C(=O)Cn3cc(CCCC[NH3+])nn3)CC2)n1.[Cl-]`, the “hERG current change (%, negative = inhibition) at 10uM” value was determined as 9.34%.

Turning to `CC(OC(=O)Cn1cnc2c1c(=O)n(C)c(=O)n2C)C(=O)NCc1ccccc1` (stereo not shown), the “hERG current change (%, negative = inhibition) at 10uM” value is recorded as 3.36%.

With `COC(=O)c1ccccc1NC(=O)CSCC(=O)Nc1ccccc1OC`, the “hERG current change (%, negative = inhibition) at 10uM” value is on record as -6.11%.

Take `Cc1cc(NC(=O)CCN2C(=O)/C(=C/c3ccccc3Cl)SC2=S)no1`: the “hERG current change (%, negative = inhibition) at 10uM” value amounted to 9.1%.

Consider `N/C(=N\OC(=O)CCCN1C(=O)c2ccccc2C1=O)c1ccc(Br)cc1`, for which the “hERG current change (%, negative = inhibition) at 10uM” value was -6.47%.

For the molecule `CCc1ccc(CCC(=O)Nc2nc(CC(C)=O)ns2)o1`, the “hERG current change (%, negative = inhibition) at 10uM” value was found to be 19%.

Turning to `COc1ccc2c(c1)cc1n2CCN2CCCN=C12.Cl`, the “hERG current change (%, negative = inhibition) at 10uM” value is listed as -51.6%.

As for `Cc1cccc2cc(C#N)c(SCC(=O)NCc3cccs3)nc12`, the “hERG current change (%, negative = inhibition) at 10uM” value was found to be 8.08%.

As for `O=C(Nc1ccccc1[N+](=O)[O-])c1cccnc1Cl`, the “hERG current change (%, negative = inhibition) at 10uM” value is reported as 17.2%.

`CCN(C(=O)COC(=O)c1ccc(C=O)cc1)c1c(N)n(Cc2ccccc2)c(=O)[nH]c1=O`: the “hERG current change (%, negative = inhibition) at 10uM” value is listed as 11%.

For `Cc1cc(C(=O)Nc2ccc(Br)cn2)sc1C`, the “hERG current change (%, negative = inhibition) at 10uM” value stood at 7.37%.

On to `Cc1ccc(/C=N/Nc2ccc(C(=O)O)cc2)o1`, for which the “hERG current change (%, negative = inhibition) at 10uM” value is on record as -6.29%.

`Cc1sc2ncn(CC(=O)NCC(=O)N(C)Cc3ccccc3)c(=O)c2c1C`: the “hERG current change (%, negative = inhibition) at 10uM” value stood at 0.854%.

In the case of `CC(C)Cn1c(C23CC4CC(CC(C4)C2)C3)n[nH]c1=S`, the “hERG current change (%, negative = inhibition) at 10uM” value was determined as 4.7%.

For `CN(C)CCn1c2c(c(SCC(=O)Nc3ccccc3C(F)(F)F)nc1=O)CCCC2`, the “hERG current change (%, negative = inhibition) at 10uM” value is given as -18.4%.

As for `CC1=CC(=O)O[C@@H]1[C@@]1(C)C[C@H]2OC(=O)C[C@H]3[C@@H](C)C(=O)C(O)=C1[C@@]23CO`, the “hERG current change (%, negative = inhibition) at 10uM” value was 9.67%.

Take `CC(CN1CCOCC1)OC(=O)c1ccc(Cl)cc1Cl.Cl` (stereo not shown): the “hERG current change (%, negative = inhibition) at 10uM” value is on record as -1.83%.

Turning to `Cc1ccc(-c2nc(NC(=O)CSc3cc(C)c4ccccc4n3)ns2)cc1`, the “hERG current change (%, negative = inhibition) at 10uM” value was found to be 12.5%.

As for `CC(=O)Cn1cnc2c(cnn2-c2ccccc2)c1=O`, the “hERG current change (%, negative = inhibition) at 10uM” value was 13.4%.

Take `O=C(c1ccc(OC2CCN(CCc3ccccc3)CC2)cc1)N1CCCCC1CCCO` (stereo not shown): the “hERG current change (%, negative = inhibition) at 10uM” value is -11.4%.

Regarding `CN1c2ccccc2C(C)(C)[C@]12C=Cc1cc(O)ccc1O2`, the “hERG current change (%, negative = inhibition) at 10uM” value is on record as 4.75%.

With `COc1ccc(C2=NN(CC(=O)Nc3ccccc3C)C(=O)CC2)cc1`, the “hERG current change (%, negative = inhibition) at 10uM” value is on record as -33.1%.

For the molecule `Cc1ccccc1NC(=O)CN1CCC(C(=O)c2ccc3c(c2)OCCO3)CC1`, the “hERG current change (%, negative = inhibition) at 10uM” value is -44.5%.

For `Cc1cc(NC(=O)COC(=O)c2cccc(OCc3ccccc3)c2)no1`, the “hERG current change (%, negative = inhibition) at 10uM” value is given as 32.1%.

Take `CC(O)c1cccc(NC(=O)CCC(=O)O)c1` (stereo not shown): the “hERG current change (%, negative = inhibition) at 10uM” value is on record as -5.85%.

For `Cc1cc(C)c(C(=O)CN2C(=O)C(=O)N(C3CCCC3)C2=O)cc1C`, the “hERG current change (%, negative = inhibition) at 10uM” value came to 21%.

Turning to `O=C(NC1CC1)C1=C[C@@H](C2CC2)C[C@@H](OCCCCO)O1`, the “hERG current change (%, negative = inhibition) at 10uM” value is given as -4.14%.

As for `COc1ccc(C(=O)NCc2cccnc2)cc1`, the “hERG current change (%, negative = inhibition) at 10uM” value was -1.7%.

For `c1ccc(C2CC(c3cccs3)=NN2c2ccccc2)cc1` (stereo not shown), the “hERG current change (%, negative = inhibition) at 10uM” value was 11.9%.

For `Cc1cc(NC(=O)CSc2nnc(-c3ccc(S(=O)(=O)N4CCCC4)cc3)n2C)no1`, the “hERG current change (%, negative = inhibition) at 10uM” value stood at 3.78%.

As for `Cn1cccc1/C=C1\SC(=O)N(CC(=O)Nc2ccc(F)cc2)C1=O`, the “hERG current change (%, negative = inhibition) at 10uM” value came out at 15.1%.

For `CCOc1ccc(S(=O)(=O)N2CCN(S(=O)(=O)c3ccc(C(C)=O)cc3)CC2)cc1`, the “hERG current change (%, negative = inhibition) at 10uM” value amounted to 0.493%.

For `Cc1ccc(NC(=O)C2CC(=O)Nc3nncn32)cc1` (stereo not shown), the “hERG current change (%, negative = inhibition) at 10uM” value turned out to be 14.4%.

Take `CC(=O)N1CCOc2ccc(S(=O)(=O)N3CCC(C(=O)Nc4cc(C)ccc4C)CC3)cc21`: the “hERG current change (%, negative = inhibition) at 10uM” value is listed as -9.95%.

Turning to `CCOC(=O)c1c(C)c(C(=O)NCCCN2CCCC2=O)c(C)n1CC`, the “hERG current change (%, negative = inhibition) at 10uM” value worked out at 2.13%.

For the molecule `O=C(NC1CCCCC1)C1CCCN(S(=O)(=O)c2ccc(F)cc2)C1` (stereo not shown), the “hERG current change (%, negative = inhibition) at 10uM” value is listed as -10.7%.

For `CCC1=[N+](CC(=O)c2ccc(C)cc2)CCn2cccc21.[Br-]`, the “hERG current change (%, negative = inhibition) at 10uM” value is on record as 17.8%.

Consider `Cc1c(Cl)cccc1NC(=S)NCCC(C)C`, for which the “hERG current change (%, negative = inhibition) at 10uM” value came to 7.57%.

Turning to `COc1ccc(/C=C\C(=O)NCc2ccc3[nH]c(C)cc3c2)cc1OC`, the “hERG current change (%, negative = inhibition) at 10uM” value is listed as -12%.

Consider `COc1cccc(CNCCc2ccc3c(c2)OCO3)c1OC.O=C(O)C(=O)O`, for which the “hERG current change (%, negative = inhibition) at 10uM” value was -15.5%.

For the molecule `CC[C@H]1CN(C)CCc2c([nH]c3ccccc23)C(=O)C[C@@H]1/C(=C\OC)C(=O)OC`, the “hERG current change (%, negative = inhibition) at 10uM” value is -69.5%.

Regarding `COc1ccc(OC)c(-n2cc3c(=O)n(C)c(=O)n(C)c3c2)c1`, the “hERG current change (%, negative = inhibition) at 10uM” value was -8.58%.

For `OCC[C@@H]1C[C@H](O)[C@@H](O)[C@]2(Cc3ccccc3O2)O1`, the “hERG current change (%, negative = inhibition) at 10uM” value is reported as 4.37%.

For `O=[N+]([O-])c1cc(/C=N\Nc2ccccn2)ccc1Cl`, the “hERG current change (%, negative = inhibition) at 10uM” value is 18.4%.

In the case of `Cc1ccc(/C=C/C(=O)NCc2ccncc2)cc1`, the “hERG current change (%, negative = inhibition) at 10uM” value was found to be 3.28%.

For the molecule `CCOc1ncccc1C(=O)NCc1ccc(OC)cc1`, the “hERG current change (%, negative = inhibition) at 10uM” value is 5.84%.

`CC(C)Cc1nnc(NC(=O)CCC(=O)N2CCN(Cc3ccc(Cl)cc3)CC2)s1`: the “hERG current change (%, negative = inhibition) at 10uM” value is -0.936%.

As to `COc1ccc(-n2c(SC)nnc2-c2c[nH]c3ccccc23)cc1`, the “hERG current change (%, negative = inhibition) at 10uM” value was -0.743%.

Regarding `COc1ccc(N/C=C(\C#N)c2nc3ccccc3n2C)c(OC)c1`, the “hERG current change (%, negative = inhibition) at 10uM” value worked out at 3.33%.
